Laboratory results taken from a compilation of properties of binary mixtures (doi:10.1007/s10953-019-00842-w).
Some of these densities may be calculated back from excess volumes.

Assay: xn = mol fraction of the nth substance listed
Conditions: 101 kPa

CC1COC(=O)O1 (stereo not given) + CC[n+]1ccn(C)c1.O=S(=O)([O-])C(F)(F)F
x2 = 0
Conditions	mass density [kg/m3]
288.15 K	1210.2
298.15 K	1199.1
303.15 K	1194
308.15 K	1188.6
313.15 K	1183.4
318.15 K	1177.9
323.15 K	1172.6
328.15 K	1167.4
333.15 K	1162.1
338.15 K	1156.8
348.15 K	1146.2
353.15 K	1141

CC[n+]1ccn(C)c1.O=S(=O)([O-])C(F)(F)F + CC1COC(=O)O1
mass density [kg/m3]
Conditions	x1 = 0.0999	x1 = 0.1999	x1 = 0.3005	x1 = 0.3998	x1 = 0.5001	x1 = 0.601	x1 = 0.6987	x1 = 0.8004	x1 = 0.8998	x1 = 1
288.15 K	1250.6	1281.7	–	–	–	1359.1	1369.9	1379.1	1386.3	1391.2
293.15 K	–	1276.8	1303.3	1323.4	1341.1	1354.5	1365.5	–	1382.1	1387.1
298.15 K	1240.4	1271.8	1298.5	1318.2	1336.5	1350	1361	–	–	–
303.15 K	–	1266.9	1293.7	–	1331.9	1345.5	–	1366	1373.7	–
308.15 K	1230.2	1262	1288.9	1309.1	–	1341	1352.2	1361.7	1369.5	1374.5
313.15 K	1225.2	1257.1	1284.1	1304.3	1322.7	1336.6	1347.8	1357.4	–	–
318.15 K	1220.1	–	–	–	–	1332.1	1343.4	1353.1	–	1366.1
323.15 K	1215.1	1247.3	1274.6	1294.9	1313.7	1327.7	–	1348.8	–	1362
328.15 K	1210	–	–	–	–	–	1334.7	1344.6	1352.8	1357.9
333.15 K	1205	1237.6	–	1285.5	1304.7	1318.9	–	–	1348.6	1353.7
338.15 K	1200	1232.8	1260.5	1280.8	1300.2	–	1326.1	–	1344.6	1349.6
343.15 K	–	1228	1255.9	–	1295.8	1310.3	1321.8	1331.9	1340.6	1345.6
348.15 K	1190	1223.2	1251.2	1273.7	1291.3	1306.2	1317.6	1327.7	1336.1	1341.5
353.15 K	1185	1218.3	–	1269.1	1286.9	1301.5	1313.3	1323.5	–	–
